Laboratory results: PubChem BioAssay AID624296 (National Center for Advancing Translational Sciences (NCATS), 2012)
In all, about 350,000 compounds went through this assay and about 9,900 (2.8%) were called active. The shares of active, inactive and inconclusive entries below differ from those in the screen. The call rests on the fitted dose curve; in most records, active means well fitted activation curve with a large enough effect; inconclusive means small, poorly fitted or top-dose-only effect; inactive means no such curve, though single readings can be large or run the other way. No potency is given beside an inconclusive call; the fits are too rough.

assay: A quantitative high throughput screen for small molecules that induce DNA re-replication in MCF 10a normal breast cells.; further: nearly all actives have a fitted effect of over 50% in size; on activity, positive = re-replication: % of control where 0% means no effect; details: MCF 10A DNA re-replication, Hoechst nuclear intensity, 48 h; activity, positive = re-replication: at 46.1 µM (top of the series)
Potency means the concentration at half of the fitted maximal effect; tags describe the fitted curve by direction and shape.

Structure (SMILES) | Potency | activity, positive = re-replication
CCc1ccccc1OCC(=O)Nc1cc(S(=O)(=O)N(CC)CC)ccc1N1CCOCC1 | inconclusive [activator, single point] | –
Cc1ccnc(NC(=O)c2ccc(Cl)c([N+](=O)[O-])c2)c1 | inconclusive [activator, single point] | –
O=C(NCCCn1ccnc1)c1cn(-c2ccccc2)nc1-c1ccc(F)cc1 | – | inactive: 3.72%
O=C(CNC(=O)c1cccs1)OCc1ccc(Cl)cc1 | – | inactive: -35.2%
Cn1cc([N+](=O)[O-])c(C(=O)Nc2ccc(C(=O)N3CCCCC3)cc2)n1 | active: 20.6 µM | –
O=c1c2ccccc2sn1-c1ccc(S(=O)(=O)N2CCCCC2)cc1 | – | inactive: -5.88%
O=C(Nc1ccc(Cl)c(Cl)c1)c1ccccc1 | inconclusive [activator, full curve, poor fit] | –
c1ccc(-c2nc(N3CCOCC3)cc(N3CCOCC3)n2)cc1 | – | inactive: 4.72%
CCCC(=O)NC(c1ccco1)c1cc(Cl)c2cccnc2c1O (stereo unspecified) | inconclusive [activator, partial curve, poor fit] | –
CN(Cc1cnn(C)c1)S(=O)(=O)c1cccc([N+](=O)[O-])c1 | – | inactive: -20.2%
COc1ccc(CCNC(=O)/C(C#N)=C2\N=C(NC(=O)c3ccco3)c3ccccc32)cc1 | inconclusive [activator, single point] | –
CC[C@H](C)/C=C(C)/C=C/C(=O)Cc1cc(O)c(C)c(O)c1C=O | inconclusive [activator, partial curve, poor fit] | –
O=C(CCN1CCN(C/C=C/c2ccccc2)CC1)Nc1ccc(Cl)cc1 | inconclusive [activator, single point] | –
O=C(NCCc1ccccc1Cl)c1ccc2nc3ccccc3c(=O)n2c1 | inconclusive [activator, full curve, poor fit] | –
COc1ccc(/C(C)=N/NC(=O)CNC(=O)CCc2ccccc2)c(OC)c1 | inconclusive [activator, single point] | –
Cc1cccc(OCC(=O)O/N=C(\N)Cc2ccc(Cl)cc2)c1 | inconclusive [activator, partial curve, poor fit] | –
Cc1nc(Cl)c(C(=O)NCc2ccccc2)c(C)c1Cl | – | inactive: 0.985%
CC(=O)c1c(COC(=O)c2ccccc2Cl)nc2ccccc2[n+]1[O-] | – | inactive: -7.79%
Clc1ccc(Nc2nc(-c3cccs3)cs2)nc1 | inconclusive [activator, single point] | –
COc1ccc2nc(NC(=O)C3CCN(S(=O)(=O)c4cccs4)CC3)sc2c1 | – | inactive: -1.04%
CCCn1nc(NC(=O)C(C)(C)C)c2cc3cc(OC)ccc3nc21 | active: 14.6 µM | –
CCOC(=O)c1ccc(NC(=O)C2COc3ccccc3O2)cc1 (stereo unspecified) | inconclusive [activator, single point] | –
FC(F)(F)c1cccc(Nc2nc(N3CCOCC3)nc(N3CCOCC3)n2)c1 | inconclusive [activator, single point] | –
Cc1cccc(C(C)C)c1NC(=O)c1ccc(OCC2CCCO2)cc1 (stereo unspecified) | inconclusive [activator, partial curve, poor fit] | –

Structure (SMILES) | Potency | activity, positive = re-replication
CCCCn1c(N)c(N(CCOC)C(=O)c2cccc(S(=O)(=O)N3CCCCCC3)c2)c(=O)[nH]c1=O | – | inactive: 4.04%
COc1ccccc1NC(=O)C(=O)NNC(=O)c1ccco1 | inconclusive [activator, single point] | –
CCOCc1nnc(NC(=O)c2ccc3c(c2)OCO3)s1 | inconclusive [activator, partial curve, poor fit] | –
O=C(NCc1ccc2c(c1)OCO2)Nc1ccc(F)cc1 | – | inactive: -6.93%
COc1ccc(NC(=O)c2cc(-c3ccccc3Cl)no2)cc1 | – | inactive: 6.28%
COc1ccc(-c2oc3ccc(-c4cc(OC)c(OC)c(OC)c4)cc3c2C#Cc2ccccn2)cc1 | inconclusive [activator, single point] | –
N#Cc1ccc(N=c2ssnc2Cl)cc1 | inconclusive [activator, single point] | –
CC(C)C(c1nnnn1Cc1cccs1)N1CCN(C(=O)c2ccco2)CC1 (stereo unspecified) | – | inactive: 1.34%
COc1cc(/C=C/C(=O)OCC(=O)N2CC3(C)CC2CC(C)(C)C3)ccc1O (stereo unspecified) | inconclusive [activator, partial curve, poor fit] | –
N#CC(=C=[N-])c1nc2ccccc2nc1-[n+]1cccc(NC(=O)c2ccccc2)c1 | – | inactive: -1.48%
C=C(C)Cn1c(SCC#N)nc2ccccc2c1=O | inconclusive [activator, single point] | –
O=C(NCc1cccc(Cl)c1)c1cnn2c1NC(c1ccco1)CC2C(F)(F)F (stereo unspecified) | inconclusive [activator, partial curve, poor fit] | –
O=C(NCc1ccco1)C12CN(Cc3ccccc3)CC1C(c1ccc([N+](=O)[O-])cc1)=NO2 (stereo unspecified) | inconclusive [activator, single point] | –
CC(=O)NC(CC(=O)OCC(=O)N1CCc2ccccc21)c1ccccc1 (stereo unspecified) | inconclusive [activator, single point] | –
CN1CCCN(C(=O)c2ccc(Br)cc2)CC1 | – | inactive: 0.281%
C=CCOc1ccc2ccccc2c1CNCCCN1CCOCC1 | – | inactive: 26.4%
Cc1cc(C)c(NC(=O)CSc2nc(COc3ccccc3)nc3ccccc23)c(C)c1 | inconclusive [activator, partial curve, poor fit] | –
CCn1c(=O)n(CC)c2cc(S(=O)(=O)N3CCC(c4ccccc4)CC3)ccc21 | – | inactive: -4.52%
N#C/C(=C\c1ccc(F)c(Br)c1)C(=O)NC1CC1 | inconclusive [activator, full curve, poor fit] | –
CCOC(=O)c1cc(-c2ccc3c(c2)OCCO3)n[nH]1 | inconclusive [activator, single point] | –
COc1ccc(C2=NN(C(=O)c3cccs3)C(c3ccccc3O)C2)cc1 (stereo unspecified) | active: 20.6 µM | –
O=C(NCc1ccccc1)C1=C[C@H](c2ccc(C(F)(F)F)cc2)C[C@H](OCc2ccc(CO)cc2)O1 | inconclusive [activator, single point] | –
N#CC1=C2SCC(O)(c3ccccc3)N2C(=O)CC1c1ccccc1 (stereo unspecified) | active: 5.8 µM | –
CC(C)OC(=O)C(=O)NNc1ccccc1 | active: 10.3 µM | –

Structure (SMILES) | Potency | activity, positive = re-replication
N#C/C(=C/c1ccc(F)cc1)S(=O)(=O)c1ccccc1 | inconclusive [activator, partial curve] | –
COCCN(CC(=O)Nc1cccc(C)c1C)C(=O)c1cc2ccccc2cc1OC | inconclusive [activator, full curve, poor fit] | –
CCOC(=O)CSC1=C(C#N)C(c2sccc2C)CC(=O)N1 (stereo unspecified) | active: 2 µM | –
CCCCNC(=S)Nc1cccc2cnccc12 | – | inactive: 13.2%
CCOc1ccc(-c2nc(N)ncc2Oc2ccccc2Br)c(O)c1 | inconclusive [activator, single point] | –
Cc1ccc(NC(=S)N(Cc2ccccc2)C(C)C)cc1 | inconclusive [activator, partial curve, poor fit] | –
COc1ccccc1NC(=O)CN1CCN(c2ccccc2)CC1 | – | inactive: 8.59%
O=C(CSCC(=O)N1CCCCC1)Nc1nc(-c2ccccc2)c(-c2ccccc2)s1 | inconclusive [activator, partial curve, poor fit] | –
COCCCNc1nc2ccccc2nc1NS(=O)(=O)c1ccc(C)cc1C | – | inactive: -0.872%
CCOC(=O)c1ccc(N2C(=O)CC(Nc3ccc(O)cc3)C2=O)cc1 (stereo unspecified) | inconclusive [activator, single point] | –
CCCCOc1ccc(C(=O)N/C(=C/C=C/c2ccccc2)C(=O)NCCCO)cc1 | inconclusive [activator, single point] | –
Cn1cc([N+](=O)[O-])c(C(=O)Nc2ccn(C34CC5CC(CC(C5)C3)C4)n2)n1 | inconclusive [activator, single point] | –
CN(C1CCCCC1)S(=O)(=O)c1cc2c3c(c1)CCN3C(=O)CC2 | inconclusive [activator, full curve] | –
Cc1ccccc1NC(=O)c1csc2c1CCCC2 | – | inactive: 21.4%
CC(=O)NNC(=S)NC(=O)c1cccc([N+](=O)[O-])c1 | inconclusive [activator, partial curve, poor fit] | –
COc1ccc(Cn2nnnc2C(c2ccc3ncccc3c2)N2CCN(C3CCCCC3)CC2)cc1 (stereo unspecified) | inconclusive [activator, full curve, poor fit] | –
CCN(CCO)C(=O)C12CCC(C)(C(=O)C1)C2(C)C (stereo unspecified) | inconclusive [activator, single point] | –
Cc1cc(Cl)ccc1OCC(=O)Nc1nc(-c2cccs2)cs1 | inconclusive [activator, single point] | –
COc1cc(/C=C2\CCC/C(=C\c3ccc(O)c(OC)c3)C2=O)ccc1O | active: 4.11 µM | –
COc1ccc(CN2CCN(S(=O)(=O)c3ccc(F)cc3)CC2)cc1OC | – | inactive: 0.877%
CC[C@H](Cc1c(I)cc(I)c(N)c1I)C(=O)O | – | inactive: -0.948% [at 20.6 µM]
Cc1nn(-c2ccccc2)c(N2CCCC2)c1/C=C1\N=C(c2ccc(OC(C)C)cc2)OC1=O | inconclusive [activator, single point] | –
COc1ccc(-c2[nH]ncc2N=Nc2cc(C)cc(C)c2)cc1 | inconclusive [activator, full curve, poor fit] | –
